The other results are listed elsewhere or left out. Most values come without repeats; read them as rough.
Assays:
Experiment in all cases: cell count relative to DMSO control; melanoma cells; higher = more viable cells
Settings in all cases: library dose: standard library concentration; 72 h
G361 = tested on: G361
IPC-298 = tested on: IPC-298
IST-MEL1 = tested on: IST-MEL1
LB2518-MEL = tested on: LB2518-MEL
LOXIMVI = tested on: LOXIMVI
MEL-HO = tested on: MEL-HO
MZ2-MEL = tested on: MZ2-MEL
MeWo = tested on: MeWo
RPMI7951 = tested on: RPMI7951
RVH-421 = tested on: RVH-421
SkMel28 = tested on: SkMel28
SkMel2 = tested on: SkMel2
SkMel30 = tested on: SkMel30
SkMel5 = tested on: SkMel5
UACC257 = tested on: UACC257
UACC62 = tested on: UACC62
WM115 = tested on: WM115
WM1716 = tested on: WM1716
WM1745 = tested on: WM1745
WM3526 = tested on: WM3526
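Further: cells treated in 1,536-well plates, then fixed and DAPI-stained, with nuclei counted from automated high-throughput microscope images.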

| Structure (SMILES) | cell count (G361) [%] | cell count (IPC-298) [%] | cell count (IST-MEL1) [%] | cell count (LB2518-MEL) [%] | cell count (LOXIMVI) [%] | cell count (MEL-HO) [%] | cell count (MZ2-MEL) [%] | cell count (MeWo) [%] | cell count (RPMI7951) [%] | cell count (RVH-421) [%] | cell count (SkMel28) [%] | cell count (SkMel2) [%] | cell count (SkMel30) [%] | cell count (SkMel5) [%] | cell count (UACC257) [%] | cell count (UACC62) [%] | cell count (WM115) [%] | cell count (WM1716) [%] | cell count (WM1745) [%] | cell count (WM3526) [%] |
| --- | --- | --- | --- | --- | --- | --- | --- | --- | --- | --- | --- | --- | --- | --- | --- | --- | --- | --- | --- | --- |
| COc1cc(Nc2ncc(F)c(Nc3ccc4c(n3)NC(=O)C(C)(C)O4)n2)cc(OC)c1OC [Tamatinib] + O=C(Oc1ccc([N+](=O)[O-])cc1)N1CCC(C(O)(c2ccc3c(c2)OCO3)c2ccc3c(c2)OCO3)CC1 [JZL184] (first compound 2 µM, partner dose 5 µM) | 72.9 | 82.1 | 65.8 | 81.1 | 44.8 | 73.9 | 52.4 | 77.1 | 33.2 | 70.3 | 70.8 | 71.5 | 79.2 | 57.4 | 83.9 | 94.6 | 68.4 | 60.4 | 29.5 | 58.7 |
| C/C(O)=C(\C#N)C(=O)Nc1cc(Br)ccc1Br + Cn1cc(/C=C2\C(=O)Nc3cccnc32)c2ccccc21 [GW441756] (first compound 10 µM, partner dose 2 µM) | 82.3 | 85.6 | 102 | 111 | 104 | 98.5 | 81 | 85 | 97.4 | 123 | 82.9 | 93.6 | 108 | 71.9 | 86.1 | 81.8 | 72.9 | 93.1 | 80.9 | 76.9 |
| CC1(C)CCC(c2ccc(Cl)cc2)=C(CN2CCN(c3ccc(C(=O)NS(=O)(=O)c4ccc(N[C@H](CCN5CCOCC5)CSc5ccccc5)c(S(=O)(=O)C(F)(F)F)c4)cc3)CC2)C1 + C[As](C)SC[C@H](NC(=O)CC[C@H](N)C(=O)O)C(=O)NCC(=O)O [Darinaparsin] (first compound 2 µM, partner dose 2 µM) | 59.5 | 80.2 | 56.7 | 59.6 | 9.14 | 57.4 | 82.2 | 60.1 | 38.6 | 36.6 | 67.4 | 72.4 | 66.3 | 64.8 | 53.6 | 50.3 | 52 | 43 | 4.27 | 84.2 |
| Cc1cc(SCc2sc(-c3ccc(C(F)(F)F)c(F)c3)nc2C)ccc1OCC(=O)O + CC(C)CCN1c2nc(Nc3cc(F)c(O)c(F)c3)ncc2N(C)C(=O)C1C [BID1870] (first compound 10 µM, partner dose 1 µM) | 69.7 | 89.2 | 78.5 | 89.5 | 100 | 80.1 | 106 | 85.3 | 95.1 | 76 | 71.2 | 82.5 | 84.9 | 59.8 | 76.3 | 102 | 101 | 85.9 | 91.1 | 66.6 |
| COc1ccc2c(c1)CCC1C2CCC2(C)C(NCCCCCCN3C(=O)C=CC3=O)CCC12 (stereo not given) + C/C(O)=C(\C#N)C(=O)Nc1cc(Br)ccc1Br [LFM-A13] (first compound 2 µM, partner dose 10 µM) | 69.6 | 92.1 | 95.4 | 111 | 79.2 | 86.7 | 79.4 | 61.2 | 20 | 83.4 | 65.7 | 101 | 76.7 | 53.6 | 86.7 | 66.2 | 98.1 | 83.8 | 88.7 | 84.2 |
| Nc1cccc2c1CN(C1CCC(=O)NC1=O)C2=O (stereo not given) [lenalidomide] + C/C(O)=C(\C#N)C(=O)Nc1cc(Br)ccc1Br [LFM-A13] (first compound 5 µM, partner dose 10 µM) | 102 | 111 | 103 | 97.5 | 108 | 105 | 96.4 | 98.9 | 87.1 | 94.8 | 77.4 | 96.3 | 87.1 | 87.3 | 85.4 | 64.2 | 103 | 90.8 | 91.7 | 81.1 |
| OCCn1cc(-c2cnc3nnn(Cc4ccc5ncccc5c4)c3n2)cn1 + C/C(O)=C(\C#N)C(=O)Nc1cc(Br)ccc1Br [LFM-A13] (first compound 5 µM, partner dose 10 µM) | 87.8 | 101 | 93.9 | 79.8 | 74.4 | 85.9 | 95.3 | 109 | 95.2 | 107 | 86.5 | 92.8 | 102 | 104 | 110 | 108 | 93.2 | 116 | 97.9 | 105 |
| CC1(C)CCC(c2ccc(Cl)cc2)=C(CN2CCN(c3ccc(C(=O)NS(=O)(=O)c4ccc(N[C@H](CCN5CCOCC5)CSc5ccccc5)c(S(=O)(=O)C(F)(F)F)c4)cc3)CC2)C1 + N.N.[Cl][Pt][Cl] [cisplatin] (first compound 2 µM, partner dose 8 µM) | 69.2 | 85.2 | 73.9 | 67.9 | 73.9 | 64.5 | 73 | 66.6 | 23.6 | 52.6 | 77.9 | 61.8 | 57.8 | 61.6 | 40.9 | 45.4 | 70.3 | 49.6 | 3.62 | 66.6 |
| COc1cc(Nc2ncc(F)c(Nc3ccc4c(n3)NC(=O)C(C)(C)O4)n2)cc(OC)c1OC [Tamatinib] + Cc1cc(SCc2sc(-c3ccc(C(F)(F)F)c(F)c3)nc2C)ccc1OCC(=O)O [GW0742] (first compound 2 µM, partner dose 10 µM) | 78.3 | 88.9 | 75.9 | 122 | 61.2 | 75.4 | 75.2 | 75.4 | 69 | 93.1 | 69.9 | 78.1 | 93.2 | 55.6 | 70.6 | 85.6 | 91.3 | 89.1 | 45.2 | 82.7 |
| C[C@]1(c2nc3c(C(N)=O)cccc3[nH]2)CCCN1 [Veliparib] + O=C(Oc1ccc([N+](=O)[O-])cc1)N1CCC(C(O)(c2ccc3c(c2)OCO3)c2ccc3c(c2)OCO3)CC1 [JZL184] (first compound 7 µM, partner dose 5 µM) | 88.6 | 95.2 | 93.8 | 116 | 168 | 102 | 104 | 101 | 84.7 | 82.1 | 74.7 | 79.3 | 88.7 | 59.1 | 95.6 | 71 | 84.8 | 93.5 | 78.2 | 88.2 |
| C/C(O)=C(\C#N)C(=O)Nc1cc(Br)ccc1Br + O=C1NC(=O)/C(=C/c2ccc(-c3ccc(F)cc3O)o2)S1 [AS252424] (first compound 10 µM, partner dose 5 µM) | 91.1 | 103 | 102 | 112 | 104 | 79.7 | 102 | 105 | 127 | 135 | 97 | 103 | 112 | 115 | 122 | 107 | 120 | 129 | 136 | 99.1 |
| NC(=O)Nc1cc(-c2cccc(F)c2)sc1C(=O)N[C@H]1CCCNC1 + C/C(O)=C(\C#N)C(=O)Nc1cc(Br)ccc1Br [LFM-A13] (first compound 0.1 µM, partner dose 10 µM) | 90.8 | 86.2 | 89.5 | 79.7 | 192 | 79.5 | 92 | 70.6 | 40.8 | 278 | 40.8 | 89.4 | 71.1 | 91.2 | 102 | 59.8 | 79.2 | 70.5 | 47.4 | 62.1 |
| COc1cc([C@@H]2c3cc4c(cc3[C@@H](O[C@@H]3O[C@@H]5CO[C@@H](C)O[C@H]5[C@H](O)[C@H]3O)[C@H]3COC(=O)[C@H]23)OCO4)cc(OC)c1O [etoposide] + C[As](C)SC[C@H](NC(=O)CC[C@H](N)C(=O)O)C(=O)NCC(=O)O [Darinaparsin] (first compound 0.1 µM, partner dose 2 µM) | 71.1 | 70.4 | 103 | 76.4 | 104 | 89.2 | 80.5 | 72.3 | 99.1 | 93.8 | 92.4 | 84.5 | 79.8 | 62.2 | 81.9 | 58.2 | 75.5 | 57.3 | 94.9 | 85.7 |
| COc1ccc2c(c1)CCC1C2CCC2(C)C(NCCCCCCN3C(=O)C=CC3=O)CCC12 (stereo not given) + O=C(Oc1ccc([N+](=O)[O-])cc1)N1CCC(C(O)(c2ccc3c(c2)OCO3)c2ccc3c(c2)OCO3)CC1 [JZL184] (first compound 2 µM, partner dose 5 µM) | 89.2 | 101 | 95.5 | 91.2 | 91.1 | 89.8 | 103 | 65.4 | 44.5 | 107 | 132 | 97.2 | 109 | 77.3 | 88.2 | 80 | 96.2 | 71.5 | 71.4 | 79.7 |
| NC1(c2ccc(-c3nc4ccn5c(=O)[nH]nc5c4cc3-c3ccccc3)cc2)CCC1 + N.N.[Cl][Pt][Cl] [cisplatin] (first compound 2 µM, partner dose 8 µM) | 84.3 | 112 | 89.5 | 72 | 67.1 | 95.1 | 103 | 94.2 | 80.3 | 74 | 59.4 | 91.4 | 116 | 87.1 | 86.2 | 63.2 | 76.6 | 84.2 | 65.3 | 75.5 |
| Cn1cncc1[C@@](N)(c1ccc(Cl)cc1)c1ccc2c(c1)c(-c1cccc(Cl)c1)cc(=O)n2C [tipifarnib] + Cc1cc(SCc2sc(-c3ccc(C(F)(F)F)c(F)c3)nc2C)ccc1OCC(=O)O [GW0742] (first compound 0.05 µM, partner dose 10 µM) | 88.5 | 97.7 | 86.5 | 83.4 | 84.4 | 83.9 | 96.2 | 93 | 78.9 | 104 | 75.9 | 91.7 | 117 | 75.4 | 97.2 | 80 | 79.9 | 79.1 | 87.8 | 80.3 |
| CCc1ccc(CCOc2ccc(CC3SC(=O)NC3=O)cc2)nc1 (stereo not given) [pioglitazone] + Cc1cc(SCc2sc(-c3ccc(C(F)(F)F)c(F)c3)nc2C)ccc1OCC(=O)O [GW0742] (first compound 10 µM, partner dose 10 µM) | 78.6 | 87.5 | 103 | 82.3 | 80.2 | 81.3 | 101 | 102 | 86.9 | 21.1 | 84.9 | 87.9 | 103 | 77.6 | 83 | 92.1 | 74.7 | 117 | 84.5 | 92.9 |

Reference: the supplement of paper PMC4604168 (melanoma cell lines)
